# Out of some 39,000 compounds screened, about 220 (0.56%) showed activity. The list shows a part of the results.
# System: Escherichia coli K-12 BW25113
# Assay: relative growth (OD600 normalised to plate interquartile mean) (fraction); higher = less growth inhibition, active = 0.2 or less
# Details: 50 µM; LB; incubation time: overnight (16-24 h)
# 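Further: static incubation at 37 °C against the wild-type strain, values averaged over two biological replicates.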
row,SMILES,relative growth
1,N[C@H]1CCCC[C@@H]1OCc1ccccc1,inactive: 0.981
2,COCCOC(=O)N1C(=O)[C@@]2(c3cc(C#CC4(O)CCCCCC4)ccc31)[C@H](c1ccc(OCCO)cc1)N1[C@H](c3ccccc3)[C@H](c3ccccc3)OC(=O)[C@H]1[C@@H]2C(=O)NC[C@H](O)c1ccccc1,inactive: 1.02
3,COc1ccc(NC(=O)N(C)C[C@H]2OCCCC[C@H](C)Oc3ccc(NS(=O)(=O)c4c(C)noc4C)cc3C(=O)N([C@@H](C)CO)C[C@@H]2C)cc1,inactive: 1.01
4,CNc1ccccc1C(=O)N1CCc2c([nH]c3ccccc23)C1=O,inactive: 0.954
5,CC(C)NC(=O)[C@H]1CC[C@@H](n2c(NC(=O)c3ccc(F)cc3)nc3ccc(CN4CCC(C(C)(C)O)CC4)cc32)CC1,inactive: 0.999
6,COc1ccc(S(=O)(=O)N(C)C[C@H]2OCCCC[C@@H](C)Oc3ccc(NS(=O)(=O)c4ccc(Cl)cc4)cc3C(=O)N([C@H](C)CO)C[C@H]2C)cc1,inactive: 1.04
7,CCCNC(=O)c1cc2c(c(-c3cccc(-c4cc5ccccc5o4)c3)n1)[C@@H](CCO)N(C(=O)NC(C)C)C2,inactive: 1.1
8,CCN(CC)C(C)CN1c2ccccc2Sc2ccccc21.Cl (stereo not given),inactive: 0.804
9,COc1ccc(S(=O)(=O)Nc2ccc3c(c2)CC(=O)N([C@H](C)CO)C[C@@H](C)[C@H](CN(C)C(=O)NC(C)C)O3)cc1,inactive: 0.995
10,Cc1ccccc1S(=O)(=O)N1C[C@@H](O)COC[C@@H]2O[C@H](CC(=O)NCc3ccccc3Cl)CC[C@H]21,inactive: 0.995
11,COc1ccc(S(=O)(=O)Nc2cccc3c2O[C@@H](CN(C)S(=O)(=O)c2ccccc2)[C@H](C)CN([C@H](C)CO)C3=O)cc1,inactive: 0.951
12,O=C(C[C@H]1CC[C@H]2[C@@H](COC[C@H](O)CN2CC2CCOCC2)O1)N1CCOCC1,inactive: 0.993
13,O=C1CCC23C=CC(=O)NCCCCNCCCNC(=O)C=Cc4ccc(c2c4)OC3C1 (stereo not given),inactive: 1.02
14,COc1ccc(NC(=O)N(C)C[C@H]2Oc3ccc(NC(=O)Cn4cnnn4)cc3CC(=O)N([C@@H](C)CO)C[C@@H]2C)cc1,inactive: 0.997
15,C[C@H](O)C#Cc1ccc2c(c1)O[C@H](CN(C)C(=O)CN(C)C)[C@H](C)CN([C@H](C)CO)S2(=O)=O,inactive: 1
16,COc1ccc(C(=O)Nc2ccc3c(c2)C(=O)N(C)[C@H]2CC[C@@H](CC(=O)NCC4CC4)O[C@H]2CO3)cc1,inactive: 0.981
17,CCNC(=O)N1CCN(CCO)CC1,inactive: 0.977
18,C[C@H]([C@H](C)N1CC(=O)NC(=O)C1)N1CC(=O)NC(=O)C1,inactive: 1.01
19,Cc1noc(C)c1S(=O)(=O)Nc1ccc2c(c1)CC(=O)N([C@@H](C)CO)C[C@H](C)[C@@H](CN(C)Cc1ccncc1)O2,inactive: 0.961
20,C[C@@H]1CN([C@H](C)CO)C(=O)Cc2cc(NC(=O)Nc3ccccc3)ccc2O[C@H]1CN(C)Cc1ccc(-c2ccccc2)cc1,inactive: 1.03

row,SMILES,relative growth
1,CN(C)CCCOc1nn(Cc2ccccc2)c2ccccc12.Cl,inactive: 0.984
2,CC(=O)O[C@H]1CC[C@]2(C)[C@H]3CC[C@H]4[C@H]5CC(C)(C)CC[C@]5(C(=O)O)CC[C@@]4(C)[C@]3(C)CC[C@H]2C1(C)C,inactive: 0.992
3,CN1CCN(CCO)CC1,inactive: 0.999
4,C[C@@H]1CN([C@@H](C)CO)C(=O)Cc2cc(NC(=O)Nc3ccccc3)ccc2O[C@H]1CN(C)S(=O)(=O)c1cn(C)cn1,inactive: 1.02
5,Cn1c(=O)oc2cc(S(=O)(=O)N3CCC[C@H](C(=O)NN4CCOCC4)C3)ccc21,inactive: 0.99
6,C[C@@H]1CN([C@H](C)CO)C(=O)c2cccc(NS(=O)(=O)c3ccccc3)c2O[C@@H]1CN(C)S(=O)(=O)c1ccc(F)cc1,inactive: 0.981
7,C[C@@H]1CN([C@@H](C)CO)C(=O)c2cc(NS(C)(=O)=O)ccc2O[C@@H](C)CCCCO[C@H]1CN(C)C(=O)c1ccncc1,inactive: 0.845
8,COC(=O)[C@H]1N=C(c2ccc(OCCCOC(=O)NCCCCCC(=O)NO)cc2)O[C@H]1c1ccccc1,inactive: 1.03
9,C[C@@H]1CN([C@H](C)CO)C(=O)Cc2cc(NC(=O)NC3CCCCC3)ccc2O[C@H]1CN(C)Cc1ccc(Cl)c(Cl)c1,inactive: 1.01
10,O=C(C[C@H]1C=C[C@@H](NS(=O)(=O)c2ccc(F)cc2)[C@H](CO)O1)NCCN1CCCCC1,inactive: 0.999
11,C[C@H]1CN([C@@H](C)CO)C(=O)c2cc(-c3cccc(C#N)c3)cnc2O[C@H]1CN(C)C(=O)C1CCOCC1,inactive: 1.03
12,NC(=O)C[n+]1cccc2ccccc21,inactive: 0.999
13,COc1ccc(S(=O)(=O)Nc2ccc3c(c2)C(=O)N([C@H](C)CO)C[C@@H](C)[C@@H](CN(C)Cc2ccc(C(F)(F)F)cc2)OCCCC[C@@H](C)O3)cc1,inactive: 1.07
14,C[C@H](CO)N1C[C@H](C)[C@@H](CN(C)Cc2ccc(Cl)c(Cl)c2)OCCCC[C@H](C)Oc2ccc(NC(=O)Nc3cccc4ccccc34)cc2C1=O,inactive: 1.04
15,C[C@H]1CCCCO[C@H](CN(C)S(=O)(=O)c2cccs2)[C@@H](C)CN([C@@H](C)CO)C(=O)c2cc(NC(=O)Nc3ccc(C(F)(F)F)cc3)ccc2O1,inactive: 1.03
16,CCS(=O)(=O)N1CC[C@]2(CC1)CN(CC1CCOCC1)[C@H](CO)c1c2c2ccc(cc2n1C)OC,inactive: 0.98
17,COc1ccc(NC(=O)N(C)C[C@H]2OCCCC[C@@H](C)Oc3ccc(NS(=O)(=O)c4cccs4)cc3C(=O)N([C@@H](C)CO)C[C@H]2C)cc1,inactive: 1.02
18,CN1CCN(C(=O)C[C@H]2CC[C@@H]3[C@H](COC[C@H](O)CN3S(=O)(=O)c3cccc(F)c3)O2)CC1,inactive: 0.994
19,C[C@H]1CCCCO[C@H](CN(C)S(=O)(=O)c2cn(C)cn2)[C@@H](C)CN([C@@H](C)CO)C(=O)c2cc(N(C)C)ccc2O1,inactive: 0.999
20,C[C@H]1CCCCO[C@@H](CN(C)Cc2ccc(C(F)(F)F)cc2)[C@@H](C)CN([C@@H](C)CO)C(=O)c2cc(N(C)C)ccc2O1,inactive: 0.972

# — the supplement of paper PMC9446081
